Laboratory results as given in PubChem BioAssay AID1159614 (National Center for Advancing Translational Sciences (NCATS), 2016).
Among all 45,000 compounds or so, about 65 (0.1%) were called active. Calls follow the shape of the dose curve; as a rule, active = well fitted activation curve with a large enough effect; inconclusive = small, poorly fitted or top-dose-only effect; inactive = no such curve, though single readings can be large or run the other way. The list shows a part of the results.

target: Galactocerebrosidase (Homo sapiens) (UniProt P54803); test: A Novel Cell-Based Assay to Identify Small Molecules for B -Galactocerebrosidase; details: 145M-Twi-hGALC-G270D cells, HMU-beta-Gal fluorescence, 48 h; series mostly up to 57.5 µM; activation: at the top concentration; also: 0% is about no effect; nearly all actives have a fitted effect of over 65% in size
Summary of the method: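 qHTS, 1536-well; 145M-Twi-hGALC-G270D cells (WT line also made) in DMEM/F12 + 10% FBS; compound incubation on live cells; HMU-β-gal 0.1 mM final, pH 5.2, NaTC; carbonate stop; fluorescence increase = enhanced residual activity.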

Chain of UniProt P54803 (P54803 whole entry, looked up): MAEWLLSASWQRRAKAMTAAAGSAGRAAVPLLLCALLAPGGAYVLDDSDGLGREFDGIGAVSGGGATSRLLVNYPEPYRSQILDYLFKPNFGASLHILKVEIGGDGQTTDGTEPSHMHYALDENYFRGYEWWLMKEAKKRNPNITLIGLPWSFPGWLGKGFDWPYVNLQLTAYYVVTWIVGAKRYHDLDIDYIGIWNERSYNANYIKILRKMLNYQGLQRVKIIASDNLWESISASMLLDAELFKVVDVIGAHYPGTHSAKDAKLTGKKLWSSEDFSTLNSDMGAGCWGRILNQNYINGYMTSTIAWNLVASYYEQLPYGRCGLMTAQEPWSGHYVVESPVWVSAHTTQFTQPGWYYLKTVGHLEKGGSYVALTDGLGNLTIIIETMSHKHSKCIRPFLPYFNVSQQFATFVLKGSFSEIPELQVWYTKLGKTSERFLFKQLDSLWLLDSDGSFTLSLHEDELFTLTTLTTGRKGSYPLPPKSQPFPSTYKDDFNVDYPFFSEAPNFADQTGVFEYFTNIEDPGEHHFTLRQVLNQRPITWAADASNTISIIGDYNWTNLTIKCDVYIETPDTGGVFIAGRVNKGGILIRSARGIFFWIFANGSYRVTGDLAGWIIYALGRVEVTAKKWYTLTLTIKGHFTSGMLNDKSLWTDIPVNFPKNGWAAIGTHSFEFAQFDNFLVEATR

Structure (SMILES) | activation
COC(=O)c1ccc(Oc2nc3c(c(=O)n(C)c(=O)n3C)n2Cc2ccc(Cl)c(Cl)c2)cc1 | inactive: -14%
CCC(=O)Nc1cccc(OCc2cc(=O)n3cc(C)ccc3n2)c1 | inactive: -27.6%
O=C(Nc1nnc(S(=O)(=O)N2CCCCCC2)s1)c1ccccc1 | inactive: -17.9%
COc1ccccc1N(CC(=O)Nc1cc(C)cc(C)c1)S(C)(=O)=O | inactive: 19.2%
Cc1cc(NCc2ccc(Cl)cc2)n2cnnc2n1 | inactive: -11.2%
CCc1ccc(NS(=O)(=O)c2c(-c3ccccc3)csc2C(=O)OC)cc1 | inactive: -7.07%
CCc1cccc(NC(=O)Cn2ccn3nc(-c4ccc(OC)c(OC)c4)cc3c2=O)c1 | inactive: -21.9%
Cc1cccc(-c2noc(-c3ccc(NCc4cccnc4)c([N+](=O)[O-])c3)n2)c1 | inactive: -18.5%
CN(Cc1ccco1)S(=O)(=O)c1nnc(NC(=O)c2ccccc2)s1 | inactive: -18.9%
Cc1ccc(OCc2cc(=O)n3c4c(sc3n2)CCCC4)cc1C | inactive: -1.3%
COc1cc(OC)cc(C(=O)Nc2ccc3c(c2)n(C)c(=O)c(=O)n3C)c1 | inactive: 2.53%
O=C(NCc1ccccc1Cl)c1ccc(NC(=O)N2CCSc3ccccc32)cc1 | inactive: -6.22%
COc1ccc(S(=O)(=O)N(CC(=O)Nc2ccc3c(c2)OCO3)c2ccc(C)cc2)cc1 | inactive: -7.68%
COc1ccc(OC)c(NC(=O)c2c(NCc3ccc(N(C)C)cc3)sc3c2CCCC3)c1 | inactive: -8.05%
COc1ccc(NC(=O)c2oc3ccccc3c2NC(=O)C23CC4CC(CC(C4)C2)C3)cc1 | inactive: -14.7%
CCc1ccc2occ(CC(=O)Nc3sc4c(c3C(=O)NCCOC)CCCC4)c2c1 | inactive: -9.45%
N=C(N)c1ccc(OCCCOc2ccc(C(=N)N)cc2)cc1 | inactive: -9.25%
Cc1ccc(S(=O)(=O)C(CNC(=O)c2ccc(C(F)(F)F)cc2)c2ccco2)cc1 (centres undefined) | inactive: 9.38%
Cc1noc(-c2ccc(-c3noc(-c4cccc(Cl)c4)n3)cc2)n1 | inactive: -22.1%
Cc1nc2nc(SCC(=O)NC3CCC(C)CC3)nn2c(C)c1Cc1ccccc1Cl (centres undefined) | inactive: -12.8%
O=C(Cn1cc(S(=O)(=O)c2ccccc2)c(=O)c2cc3c(cc21)OCO3)Nc1ccccc1 | inactive: 3.29%
Cn1cc(S(=O)(=O)N2CCCCC2)cc1C(=O)Nc1ccc(OC(F)(F)F)cc1 | inactive: 21.7%
O=C(NCCCc1ccccc1)c1nn(-c2ccccc2)nc1CO | inactive: -19.7%
CCc1ccc2oc(-c3ccc(C)c(NC(=O)c4ccc(C#N)cc4F)c3)nc2c1 | inactive: 7.87%
CCOC(=O)c1ccc(NC(=O)CCC(=O)N2CCSc3ccccc32)cc1 | inactive: 5.83%

Structure (SMILES) | activation
Cc1ccc(S(=O)(=O)n2nc(-c3ccco3)nc2NCc2ccc(N(C)C)cc2)cc1 | inactive: 12.4%
Cc1nc2c(-c3ccccc3)c(C)nn2c(C)c1CCC(=O)NCc1ccccc1 | inactive: -50.8%
CCn1cc2nc(SCc3cccc(C)c3)n(CCc3ccccc3)c(=O)c2n1 | inactive: -17.6%
COc1cccc(C(=O)COC(=O)c2cc(-c3cccs3)nc3ccccc23)c1 | inactive: -6.28%
Cc1cc(NS(=O)(=O)c2cn(C)c(C)n2)ccc1Br | inactive: -26.4%
COc1ccc(C(=O)NCc2nc(-c3cccc(C)c3)no2)cc1OC | inactive: -21.9%
Cc1nc(-c2ccc(S(=O)(=O)NCc3ccc(F)cc3)cc2)co1 | inactive: -14.5%
Cc1ccc(C)c(CN2C(=O)c3ccccc3S(=O)(=O)c3ccc(C(=O)NCCc4ccc(Cl)cc4)cc32)c1 | inactive: 7.77%
Cc1ccc(CCNc2nc3ccccc3c3nc(-c4cccnc4)nn23)cc1 | inactive: 1.7%
CCc1ccccc1NC(=O)C1CCN(c2nc3ccccc3[nH]2)CC1 | inactive: -7.36%
Cc1ccccc1OCC(=O)Nc1nnc(SCc2cc(=O)n3cc(Cl)ccc3n2)s1 | inactive: -3.67%
COc1cccc(CNC(=O)CCc2c(C)nc3c4c(C)cc(C)nc4nn3c2C)c1 | inactive: -5.63%
COC(=O)c1ccccc1N(C)S(=O)(=O)c1cc2c3c(c1)CC(=O)N3CCC2 | inactive: -15.1%
CCc1ccc(NC(=O)Cn2c(=O)nc(-c3ccccc3F)c3cc(Cl)ccc32)cc1 | inactive: -16.6%
Cc1cc(C)nc(-n2nc(C)c3c2N(Cc2ccccc2C)C(=O)CC3c2ccc(Cl)cc2)n1 (centres undefined) | inactive: -17.9%
O=C(Nc1ccc(Oc2ccccc2)cc1)c1ccc(F)c(S(=O)(=O)N2CCN(c3ccccc3F)CC2)c1 | inactive: -4.12%
CCOC(=O)c1c(C)[nH]c(C)c1S(=O)(=O)NCC(=O)NCc1cccc(Br)c1 | inactive: -17.2%
CC(C)CCSc1nnc2n(-c3ccccc3)c(=O)c3c4c(sc3n12)CC(C)CC4 (centres undefined) | inactive: -3.98%
O=C(Cn1cc(S(=O)(=O)Cc2cccc(Cl)c2)c2ccccc21)NCc1ccccc1Cl | inactive: 1.43%
Cc1ccc2cc3cc(C(=O)N4CCN(c5ccccc5)CC4)sc3nc2c1 | inactive: -8.36%
COc1cccc(NC(=O)/C(C#N)=C/c2ccc(-c3ccc(C)cc3)o2)c1 | inactive: -5.24%
O=C(Cn1ccc2cc(S(=O)(=O)N3CCCCCC3)ccc21)NCc1cccc(Cl)c1 | inactive: -10.5%
Cc1coc2c(C)c3oc(=O)c(CCC(=O)N4CCCCC4)c(C)c3cc12 | inactive: -2.03%
COCCn1c(C)cc(O)c(C(c2ccccc2Cl)N2CCCCC2)c1=O (centres undefined) | inactive: -5.99%
